Laboratory results published in the antibiotic and cytotoxicity screens of Wong et al. (2023).
This is one part of the list.

Columns and labels:
HSkMC = human skeletal muscle cells; test: cytotoxicity call (relative viability < 0.9); details: 10 µM
HepG2 = test: cytotoxicity call (relative viability < 0.9); details: 10 µM
S. aureus RN4220 = test: growth inhibition call (relative growth <= 0.2); details: 50 µM

## CCC[C@H]1CCCCCCCCCC(=O)O[C@@H]2[C@@H](O1)O[C@H](C)[C@H](O)[C@@H]2O[C@H]1O[C@@H](CO)[C@@H](O[C@@H]2O[C@@H](C)[C@H](O)[C@@H](O)[C@H]2OC(=O)[C@@H](C)CC)[C@@H](O)[C@@H]1O
HSkMC
  cytotoxicity call: inactive
HepG2
  cytotoxicity call: inactive
S. aureus RN4220
  growth inhibition call: inactive

## CC(C)NC(=O)Nc1ccc2c(c1)C(=O)N([C@@H](C)CO)C[C@H](C)[C@H](CN(C)Cc1ccccc1)OCCCC[C@@H](C)O2
HSkMC
  cytotoxicity call: inactive
HepG2
  cytotoxicity call: inactive
S. aureus RN4220
  growth inhibition call: inactive

## [Fe+3].CC/1=C(CCC(=O)O)/C/2=C/c3[nH]c(c(c3CCC(=O)O)C)/C=C/3\N=C(/C=C/4\N=C(\C=C1/N2)C(=C4C)C=C)C(=C3C)C=C
HSkMC
  cytotoxicity call: inactive
HepG2
  cytotoxicity call: active
S. aureus RN4220
  growth inhibition call: inactive

## O=C(C[C@H]1CC[C@H]2[C@@H](COC[C@@H](O)CN2C(=O)Nc2cc(Cl)cc(Cl)c2)O1)N1CCOCC1
HSkMC
  cytotoxicity call: inactive
HepG2
  cytotoxicity call: inactive
S. aureus RN4220
  growth inhibition call: inactive

## C[C@@H]1CCCCO[C@@H](CN(C)C(=O)C2CCCCC2)[C@H](C)CN([C@H](C)CO)C(=O)c2cc(NS(=O)(=O)c3ccccc3)ccc2O1
HSkMC
  cytotoxicity call: inactive
HepG2
  cytotoxicity call: inactive
S. aureus RN4220
  growth inhibition call: inactive

## CC(C)CC#Cc1ccc2c(c1)O[C@@H](CN(C)C(=O)c1cnccn1)[C@H](C)CN([C@@H](C)CO)S2(=O)=O
HSkMC
  cytotoxicity call: inactive
HepG2
  cytotoxicity call: inactive
S. aureus RN4220
  growth inhibition call: inactive

## CC(=O)OC1CCC2(C)C(=CC=C3C2CCC2(C)C3CCC2C(C)C=CC(C)C(C)C)C1(C)C (centres undefined)
HSkMC
  cytotoxicity call: inactive
HepG2
  cytotoxicity call: inactive
S. aureus RN4220
  growth inhibition call: inactive

## COc1cccc(-c2ccc3c(c2)O[C@H](CN(C)C(=O)C2CC2)[C@H](C)CN([C@@H](C)CO)S3(=O)=O)c1
HSkMC
  cytotoxicity call: inactive
HepG2
  cytotoxicity call: inactive
S. aureus RN4220
  growth inhibition call: inactive
